Drawing on publication PMC6830105, this text covers binding for 2 substances.

Chains of the proteins cited; added tags and fusions are not shown. Lines headed by an entry give the natural chain unless they say otherwise; changes in a name come on top. Residues count along the entry.
UniProt P14618: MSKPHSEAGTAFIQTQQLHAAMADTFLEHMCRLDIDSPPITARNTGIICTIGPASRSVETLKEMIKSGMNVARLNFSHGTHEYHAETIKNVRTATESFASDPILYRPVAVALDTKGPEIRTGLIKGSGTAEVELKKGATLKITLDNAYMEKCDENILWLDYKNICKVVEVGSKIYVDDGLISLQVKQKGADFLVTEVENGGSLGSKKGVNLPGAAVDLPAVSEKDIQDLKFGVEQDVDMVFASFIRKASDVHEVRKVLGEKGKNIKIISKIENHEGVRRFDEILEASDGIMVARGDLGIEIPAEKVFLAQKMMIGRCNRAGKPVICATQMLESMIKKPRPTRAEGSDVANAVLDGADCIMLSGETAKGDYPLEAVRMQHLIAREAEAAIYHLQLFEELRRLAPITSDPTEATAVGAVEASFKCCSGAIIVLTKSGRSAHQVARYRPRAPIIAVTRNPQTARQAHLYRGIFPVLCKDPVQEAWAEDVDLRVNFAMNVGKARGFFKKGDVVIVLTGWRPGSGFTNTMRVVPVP
GST-PKM2 N-terminal domain, amino acids 1-116: residues 1-116 of P14618
GST-PKM2 amino acids 116-218: residues 116-218 of P14618
GST-PKM2 amino acids 218-389: residues 218-389 of P14618
GST-PKM2 amino acids 389-531: residues 389-531 of P14618
UniProt P27449: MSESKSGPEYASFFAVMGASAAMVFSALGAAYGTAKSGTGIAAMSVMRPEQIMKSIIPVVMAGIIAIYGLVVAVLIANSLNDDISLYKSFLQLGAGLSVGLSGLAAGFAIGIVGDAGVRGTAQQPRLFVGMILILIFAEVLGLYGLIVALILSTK

Experiment [1] concerns the target pyruvate kinase isoform M2 (PKM2), endogenous in TE8 cells (human (endogenous in TE8)) (UniProt P14618). Put plainly: co-IP; endogenous proteins of TE8 cells; IP with anti-ATP6V0C or anti-PKM2, high or low glucose; precleared lysates with protein G Sepharose overnight at 4 °C; Western blot.
A further experiment concerns the target Flag-PKM2 (wild type) (UniProt P14618). Put plainly: co-IP; TE8 cells transfected with Flag-PKM2 or Flag-PKM2 R399E; reciprocal IP, anti-Flag IP also under high (25 mM) or low (0.5 mM) glucose; precleared lysates with protein G Sepharose and antibody overnight at 4 °C; Western blot.
A further experiment has as its target Flag-PKM2 mutant R399E (UniProt P14618). The description is as above.
The target in experiment [2] is GST-PKM2 amino acids 389-531 (UniProt P14618). Put plainly: pull-down; cell-free GST pull-down; purified GST-PKM2 fusion proteins (20 μg) on GST-agarose in STE buffer, overnight at 4 °C, eluted with 50 mM reduced glutathione; Western blot.
The target of experiment [3] is GST-PKM2 amino acids 116-218 (UniProt P14618). The description is as above.
Experiment [4] addresses GST-PKM2 amino acids 218-389 (UniProt P14618). The description is as above.
Experiment [5] concerns the target GST-PKM2 N-terminal domain, amino acids 1-116 (UniProt P14618). The description is as above.

These are yes or no findings as the source states them, for the method shown. In cells and extracts the contact can be indirect. Some binding calls cover weakened binding; strength is not graded here.

As to “vacuolar H+-ATPase subunit V0C (ATP6V0C), endogenous in TE8 cells (from UniProt P27449 1-155)”, the binding result (in experiment [1]; with Flag-PKM2 (wild type); with Flag-PKM2 mutant R399E) was “binds” in each case.
As to “ATP6V0C as used in the cell-free GST pull-down (from UniProt P27449 1-155)”, the binding entry is listed as “no binding” in experiment [2], “no binding” in experiment [3], “no binding” in experiment [4] and “binds” in experiment [5].
